Data reported in the RNAGym collection of RNA variant scans (doi:10.1093/nar/gkz1192).
Read counts are not given, so values of variants with three or more changes are uncertain.

B1: CPEB3 Ribozyme (parent)
chain: UAACAGGGGGCCACAGCAGAAGCGUUCACGUCGCAGCCCCUGUCAGAUUCUGGUGAAUCUGCGAAUUCUGCUGUAUAUCUC

Variants of: B1
Assay: self-cleavage, relative activity (ratio to wild type); higher = more cleavage; in vitro, sequencing
Method in brief: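 Relative activity compares each variant's cleaved/total read fraction with that of the unmutated ribozyme. To get these fractions, barcoded CPEB3 ribozyme libraries from rounds of error-prone PCR were transcribed with T7 RNA polymerase for 5 hours at 37°C and then given 15 min of DNase I treatment before EDTA was added. The RNAs were reverse transcribed with template switching and sequenced on Illumina, and DNA sequencing linked barcodes to variants. A minimum of 5 reads applied, and three batches were averaged.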

Variant | self-cleavage
A15G A20G U43C | 0.18
A15G A35G U54G G61A U72C | 0.53
A15G A18G A35U A57G | 0.18
A15G U41A U54A U60A | 0.07
A15G A18G A45G A56G | 0.09
A15G G30A C37A A56G U58C | 0.08
A15U A18G A56U C59U U67C | 0.15
A15G A18U A35G U67C | 0.08
A15G U41C U51A A65G | 0.65
A15G G19A U26A U41C U49C | 0.25
A15U A20G G63U U76A | 0.95
A15G G16A G24U A77U | 0.04
A15U A20G A45U U80A | 0.37
A15G C50A A64G A75U | 0.29
A15G U54C A57G U58C U66C | 0.11
A15G G24A U31C A64G U78C | 0.04
A15G A20U U60A | 0.36
A15G C37A U43C | 0.03
A15G G30U A77U | 0.12
A15G C17U U31C A65U C71G | 0.08
A15G U51A U69C U78C | 0.47
A15G U72A U80A | 0.9
A15G U43C U48C U54C | 0.2
A15G U31C C32A A56G G73C | 0.22

Variant | self-cleavage
A15G U43A U80C | 1.1
A15G A45G A56G | 0.4
A15G A45G A56U | 0.22
A15G C62U U66C U69C | 0.29
A15G A47U U49C U80C | 0.32
A15G A56G U67C | 0.15
A15G U25A C40U U43C A56G U66C G73C | 0.1
A15U A20G U25C A56G A57G A65U | 0.05
A15G U25C A64G U67C | 0.2
A15G A18G U41A U60C U67C | 0.08
A15G C23U A64G U66A | 0.35
A15G A18U A28U U58C | 0.37
A15G U74A A77G | 1.23
A15G A57U U66A | 0.31
A15G G24A A56C U58A A75G | 0.03
A15G A28G U49C A65G U72G | 0.15
A15G C34G A64G U74A | 0.07
A15G U41A G53A | 0.96
A15G U54C A65G A75U | 0.34
A15U A18G U25C U54C | 0.04
A15U A20G C37U | 0.23
A15G U25C A47G A64U U69C | 0.26
A15G C38U U49A | 0.26
A15G U25C A28U C37G U69G | 0.2

Variant | self-cleavage
A15U A18U A20C U26C | 0.29
A15G A18G C34G U54A U78G | 0.38
A15G A21U U26C C62G | 0.23
A15U A20G A56G U67C U80C | 0.77
A15G U25G U43C U69C U74A | 0.28
A15G A21G U41A U76C | 0.03
A15G A47G A56G A65G U69C U80C | 0.11
A15G A45U U72C | 1
A15G U25C A28U A45G | 0.08
A15G U43A A75G | 1.17
A15G U31C U49C G55U U67C A75G | 0.07
A15C U74A U76C | 0.81
A15G G16C U76C | 0.11
A15G A35G U51C | 0.58
A15G A57U U58G U69C U80C | 0.2
A15U A18G A64G | 0.13
A15G A45C G70C | 0.14
A15G A18G U25C A64U A75G A77G | 0
A15U A20G A35G U51G A64U U66C U69A | 0.19
A15G A18U A47G | 0.37
A15G A28U A65G U69C | 0.14
A15G U60C C62A U74C A75G | 0.05
A15G U25C A35U | 0.22
A15G C17U A28U C29U A56G U67A A75G | 0.16

Variant | self-cleavage
A15G A47G U69C | 0.25
A15G U26G U72C | 0.57
A15G U25C A57G U60C A64U U74A | 0.08
A15G A56U C68A U78C | 0.12
A15G A18G U78C | 0.34
A15G U54C A65G | 0.46
A15G A20G G22A A35U U69A | 0.19
A15U A18U U43C | 0.21
A15G A45U A64G | 0.46
A15G U41C U49A | 0.51
A15U A18G U31C U69A | 0.06
A15G A18G G36A | 0.07
A15G U31A A35U A65G U72A | 0.07
A15G A21G A45U U49C U69C | 0.05
A15G A56G A57G | 0.39
A15G U26C A35U U51A A64U U66C | 0.04
A15G A28G C39U A75U | 0.4
A15U A21G U48A | 0.07
A15U A21G G53A | 0.37
A15G U26C U60C A64U | 0.09
A15G G16U A20G U43G C62G U72A | 0.01
A15G U66C C68A U80A | 0.12
A15U A18U U26G U72C | 0.15
A15G A28U A56G C62U U80C | 0.21

Variant | self-cleavage
A15G A21G U41A U49A U54A U76A | 0.05
A15G A21U G33A G42A U78C | 0.06
A15G U51C G55A U72A | 0.15
A15G G24C G36A U54C U67A | 0.05
A15U A20C U41C U51C | 0.25
A15G A28G A45C U66C C68U U78C | 0.17
A15U A21G U25C U26C A45G U51G | 0.21
A15G C34U U58C U60A U72C A75G | 0.1
A15G A18G A35U U74C | 0.1
A15G U31G A47G U48C A57U | 0.09
A15G U43C C50A U80A | 0.18
A15G U67C U74C U80C | 0.2
A15G A21G U26C | 0.4
A15G A35U A45G U60A | 0.31
A15G U26A U67C U76C | 0.16
A15G U48C U58C | 0.15
A15G A18U C27A U48C U58G U66C | 0.04
A15G A20U C39U U49C A56U U76C | 0.05
A15G C32G A35G A45G A77U | 0.39
A15G A21C A28G A35G U41A | 0.39
A15G A18G A47G G55A | 0.13
A15G A28U G42C U48C G61A C79U U80A | 0.07
A15G C29A A47G | 0.36
A15G C17A G63C G73A C79A | 0.25

Variant | self-cleavage
A15G U69C A77G | 0.32
A15G U54C U60C U69C A77G | 0.22
A15G A28G A45U | 0.28
A15U A21G C40U U60A C71A U74C A77G | 0.06
A15G G16A U31C | 0.23
A15G G16U A28U G61A U66C U69A | 0.06
A15G A21G U26C U72A U80A | 0.36
A15G A21U A65G | 0.14
A15G U41A G55U | 0.23
A15G U58C U72G | 0.17
A15G U43A A57G | 0.76
A15G G19U A20G U31G U60C U78C | 0.03
A15G A21G A56U G61A A64G U72C U74A | 0.08
A15G A21U U43C A47G A56G C62G | 0.04
A15G U58C U66C | 0.11
A15G A20G U67A U78A | 0.61
A15G A21G A35U U51C A75U | 0.22
A15G U41C A47U U66A U67C U76C | 0.03
A15G U41G A64U | 0.13
A15G U58C A65G | 0.27
A15G U66A U69C | 0.21
A15G A64G A77U | 0.59
A15G A56G A57C A75U U76A | 0.16
A15G G63A U80C | 0.92

Variant | self-cleavage
A15U A20G A56G U67C A75C U80C | 0.78
A15G A21U A65C U69C U80C | 0.1
A15G A21G U26C U41C C59G A65G A75U | 0.06
A15G A20G G22C U25C U51A U54C | 0.26
A15G A35U C39U A57G U67C | 0.06
A15U A20G C38U U49C G52C U69A | 0.04
A15U A20U A56U | 0.05
A15G C17U A21U U26A A45C U60G | 0.07
A15G U25A U67C | 0.07
A15G A35G U69A U72C U78C | 0.92
A15G U26C A57U | 0.18
A15G A18C A65C | 0.11
A15G U25C A45G U66C | 0.07
A15G C29A A57G U69C U72C U74C | 0.13
A15G A35G A45G U72A | 0.28
A15G G61A U66A U67A | 0.33
A15G A21U G33C C68U | 0.18
A15G G53C U67C U80C | 0.18
A15G C39U C40U | 0.13
A15U A18G A65G | 0.1
A15G U26C G30A U69A C81A | 0.26
A15G U31A A35U U41G A57G A75G A77G | 0.17
A15G U67C C68U | 0.47
